Assay results published in the supplement of paper PMC3334620.
In all, about 33,000 sequences were measured (“E-score (-0.5 to 0.5)”: median about -0.035, highest 2% from about 0.34 on). The list shows a part of the results.

target: T1, Mot3 (UniProt P54785); assay: PBM E-score (8-mer binding enrichment) (E-score (-0.5 to 0.5)); higher = stronger / more preferred TF binding; most listed sequences are background and not binding sites; conditions: protein concentration: 200 nM; construct: GST-full length
T1 sequence: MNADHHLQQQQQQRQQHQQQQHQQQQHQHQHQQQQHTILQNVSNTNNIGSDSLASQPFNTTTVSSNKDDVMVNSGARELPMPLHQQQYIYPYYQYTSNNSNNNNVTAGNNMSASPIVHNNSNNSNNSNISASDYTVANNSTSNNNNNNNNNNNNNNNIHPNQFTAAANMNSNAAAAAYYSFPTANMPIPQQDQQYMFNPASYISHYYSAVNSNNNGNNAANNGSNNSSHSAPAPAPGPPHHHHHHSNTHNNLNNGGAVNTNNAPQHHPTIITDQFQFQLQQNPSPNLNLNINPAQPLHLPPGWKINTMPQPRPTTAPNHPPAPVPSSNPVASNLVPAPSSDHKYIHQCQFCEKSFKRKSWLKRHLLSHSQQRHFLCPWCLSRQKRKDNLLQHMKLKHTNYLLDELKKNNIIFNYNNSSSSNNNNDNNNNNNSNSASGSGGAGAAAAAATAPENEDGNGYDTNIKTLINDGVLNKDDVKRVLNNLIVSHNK
Summary of the method: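 Using PURExpress in vitro transcription/translation, GST-tagged yeast transcription factors were made in full-length or DNA-binding-domain form. These were applied at about 100-200 nM to double-stranded universal all-10-mer Agilent arrays, and bound protein was detected with fluorescent anti-GST. Scans were normalised with masliner before the Universal PBM Analysis Suite assigned E-scores to ungapped eight-base words pooled with their reverse complements.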

Row | Sequence | PBM E-score
1 | CGCGCAAA | 0.0262
2 | AAGGGCCA | -0.103
3 | ACTGCGTA | 0.159
4 | ATAACATA | 0.344
5 | CGCCCGAG | -0.207
6 | CTGGGTAA | -0.0878
7 | ACTCCTAA | -0.0764
8 | TCCACTAA | 0.102
9 | ATACACGC | 0.37
10 | CTGCCCCA | -0.213
11 | ATCGGGTG | -0.126
12 | ATTGTACG | 0.0405
13 | GTCCAGTA | -0.13
14 | AACACAAT | 0.277
15 | GCTATGAA | 0.0777
16 | GAAACTAA | -0.0415
17 | AGGGCCTA | -0.0122
18 | ACGCTTTC | -0.0519
19 | CTGGCATC | -0.105
20 | TCCGGTCA | -0.108
21 | AATGTGCT | -0.0246
22 | AATCCGCA | -0.096
23 | CTATGGTC | -0.262
24 | CTGGCGTA | 0.0713
25 | AAGGTATC | -0.035

Row | Sequence | PBM E-score
26 | CCTAAGTC | -0.128
27 | AGTGAAAT | -0.0218
28 | ACGGTGGA | -0.067
29 | GAGCCCAC | -0.275
30 | CCTGAACA | 0.23
31 | AGGCAGAC | -0.0304
32 | GACTTCTA | -0.184
33 | ACTCGACT | -0.101
34 | GGGCGTAA | 0.135
35 | CTGGCCTC | -0.244
36 | CCTCTAAG | -0.189
37 | CATTGGAA | 0.115
38 | ACCATCAG | -0.0992
39 | CCCTGAGC | -0.295
40 | ACTTCACC | -0.111
41 | AGCTTATA | -0.0822
42 | ACTATAGG | 0.0442
43 | CAAAGTAG | 0.0427
44 | AATCTCCA | -0.138
45 | CGGGGGAC | -0.364
46 | TATGCCCA | -0.186
47 | AAATGCAC | 0.0764
48 | ATCAAGTG | -0.0111
49 | TAGTGTAA | 0.206
50 | GGCCTCTA | -0.132

Row | Sequence | PBM E-score
51 | GAGATAGA | 0.0769
52 | TCCATGGA | 0.0305
53 | CCATATTA | 0.109
54 | GTGATTGA | 0.145
55 | CGCAAACC | -0.037
56 | AAGTGTAC | 0.0824
57 | GGTTGAAA | -0.0271
58 | AACTTCAG | 0.0391
59 | AGGAGTTC | 0.0672
60 | ACCTGCTG | 0.144
61 | AAGGAAGA | -0.0092
62 | AAACCCGA | 0.00505
63 | AGGCATGC | 0.297
64 | CGCGAGAC | -0.11
65 | CCCATGTA | 0.377
66 | ATGACCCA | 0.00523
67 | CCCATAGC | -0.311
68 | CTATATTA | 0.251
69 | CCCTGGAG | -0.0916
70 | ATTGTAGG | 0.329
71 | AGGGGACA | -0.183
72 | CCAAATTC | -0.123
73 | CTACTGAA | 0.0666
74 | TACTTCAA | 0.0493
75 | CGGGCAAG | -0.0786

Row | Sequence | PBM E-score
76 | GTCGGGAA | -0.104
77 | CCCCCGTA | -0.197
78 | CCTACCTC | -0.104
79 | CATGTCTC | -0.00903
80 | CAAGGTAC | 0.376
81 | AGAGTTGG | -0.193
82 | GGTGGCAA | -0.286
83 | CGTCTGAG | -0.102
84 | CAACGTAA | 0.298
85 | ATAATTGC | 0.177
86 | CGATAAGA | -0.0413
87 | ATTACAGA | 0.24
88 | AAGAAGTG | 0.0314
89 | ATACGTAC | 0.228
90 | CGTTCATC | 0.0679
91 | ATACATAG | 0.299
92 | CATGACAG | 0.024
93 | ATAAGAGA | -0.0923
94 | GTGAAATA | 0.139
95 | ATAAAACC | -0.259
96 | CTACGCGA | 0.232
97 | AACTTCAA | 0.152
98 | AAATGAGT | 0.0592
99 | ACGAAAGT | 0.04
100 | GCAAGCGC | -0.128

Row | Sequence | PBM E-score
101 | GGACACCC | -0.36
102 | AAGCGAGC | -0.0719
103 | TGGACCCA | -0.182
104 | AACCAATC | -0.0822
105 | TGCGCCCA | -0.243
106 | TGACAAAA | 0.0873
107 | AGATACAT | 0.246
108 | TCACGGGA | -0.125
109 | CCCGTCAG | -0.271
110 | AACTGTGA | -0.134
111 | GGAAAGTA | 0.215
112 | ACCCCTCA | -0.13
113 | CAGCTTAA | 0.0654
114 | GAACCTGA | -0.00989
115 | CATCGCAA | -0.0405
116 | ACACGACT | 0.289
117 | GGACAACA | 0.112
118 | ACCTTCGA | 0.0734
119 | AGGTTGCG | -0.162
120 | TACGGTCA | -0.081
121 | CGAGCTAC | -0.158
122 | ACCGTTGC | -0.128
123 | CACGACTG | -0.0316
124 | CCTACGGC | -0.0487
125 | TCGCGGCA | -0.223

Row | Sequence | PBM E-score
126 | GATCATAA | 0.0411
127 | AGTCCTAC | -0.125
128 | AAACATAC | 0.22
129 | CATTAATC | 0.0727
130 | AGGACCAT | -0.148
131 | GGAGGTCA | -0.209
132 | ATGCGATC | -0.133
133 | ATGAAAGG | 0.102
134 | GCGAACCA | -0.0792
135 | CCACGCAG | 0.01
136 | CGACTCCC | -0.203
137 | ACCATACT | -0.0125
138 | TAAGAAGA | 0.0425
139 | ATACCGAT | -0.144
140 | AAAGATGC | 0.132
141 | AATTATAA | 0.164
142 | TACCTTGA | 0.288
143 | CCCAAATA | -0.0495
144 | GAAGACCC | -0.266
145 | TAAATGGA | 0.0377
146 | ATGTCAAG | 0.256
147 | AAATAGGC | 0.331
148 | AGTATGGG | -0.104
149 | CTAATAGC | -0.0568
150 | CATAAGAA | 0.216

Row | Sequence | PBM E-score
151 | GGAGCCTA | 0.271
152 | AAGTGCGC | -0.171
153 | GTATAAAC | 0.186
154 | GAGGCGCA | -0.126
155 | CAAGGGCC | -0.25
156 | AAGTTCCA | -0.0886
157 | ATAGTTTG | 0.136
158 | AGCCACGC | -0.18
159 | CAAATGAA | 0.0984
160 | TCCCCCCA | -0.354
161 | AAAACCCC | -0.0261
162 | TCTACACA | 0.361
163 | CCCGCAGA | -0.147
164 | GCCTTGAA | 0.276
165 | AATCCTAG | -0.0582
166 | ATGCGATA | -0.0922
167 | GCGGTTTA | -0.0306
168 | ATGCGAGG | -0.168
169 | AAACGTTC | 0.0317
170 | AGCTAGAA | -0.164
171 | AGCTGAGA | 0.00136
172 | GGACGACC | -0.252
